Experimental data as given in a compilation of properties of binary mixtures (doi:10.1016/j.jct.2015.07.015).
Some of these densities may be calculated back from excess volumes.

Experiment: xn = mol fraction of the nth substance listed
Details: 101 kPa

C=CC[n+]1ccn(C)c1.[Cl-] + O
mass density [kg/m3]
Details | 298.15 K | 303.15 K | 313.15 K | 323.15 K | 328.15 K | 333.15 K | 343.15 K | 353.15 K | 363.15 K | 373.15 K
x2 = 0.045 | 1145.9 | 1143 | – | 1131 | 1128.2 | 1125.4 | 1119.9 | 1114.4 | 1108.8 | 1103.6
x2 = 0.091 | 1145.7 | 1142.7 | 1136.7 | 1131 | 1128.1 | – | 1119.8 | 1114.3 | – | 1103.5
x2 = 0.126 | 1145.4 | 1142.4 | – | 1130.7 | 1128.1 | 1125.2 | 1119.7 | – | – | –
x2 = 0.152 | 1145.3 | 1142.3 | 1136.4 | 1130.6 | 1127.9 | 1125 | 1119.5 | 1113.9 | 1108.4 | 1103
x2 = 0.193 | – | 1141.8 | 1136 | 1130.2 | 1127.5 | 1124.7 | 1119.1 | 1113.6 | 1108 | –
x2 = 0.267 | – | 1140.9 | 1135.1 | 1129.5 | 1126.7 | 1124 | 1118.3 | – | 1107.3 | –
x2 = 0.335 | 1143 | – | 1134.4 | – | 1125.8 | 1123 | 1117.4 | 1111.8 | 1106.3 | 1100.9

CC(=O)[O-].CC[n+]1ccn(C)c1 + O
mass density [kg/m3]
Details | 298.15 K | 303.15 K | 313.15 K | 323.15 K | 333.15 K | 343.15 K | 353.15 K | 363.15 K | 373.15 K
x2 = 0.072 | 1098.3 | 1095.3 | 1089.2 | 1083.2 | 1077.2 | 1071.2 | 1065.4 | – | –
x2 = 0.102 | 1098.3 | 1095.3 | 1089.2 | 1083.2 | 1077.2 | 1071.3 | – | – | –
x2 = 0.132 | 1098.8 | – | – | – | – | – | – | – | –
x2 = 0.188 | 1099.7 | 1096.6 | – | – | – | 1072.6 | – | 1060.8 | –
x2 = 0.266 | – | 1097.5 | 1091.4 | 1085.5 | – | 1073.5 | 1067.7 | 1061.8 | 1056
x2 = 0.355 | 1101.8 | 1098.9 | 1092.8 | 1086.8 | 1080.8 | – | – | 1062.9 | 1057.1
